From article PMC3684423 (Structure (London, England : 1993), 2012) come the findings set out here.

First the molecules themselves.
B1: Survivin D71A mutant (natural protein)
chain: not shown
B2: Survivin E65A mutant (natural protein)
chain: not shown
B3: Survivin E51A mutant (natural protein)
chain: not shown
B4: Survivin K62A mutant (natural protein)
chain: not shown
B5: Survivin E76A mutant (natural protein)
chain: not shown
B6: Survivin(K62Y/H80W) double mutant (natural protein)
chain: not shown

Where no end group is shown, it is not given here. [ ]: non-standard residue; d: D form. pT = C[C@@H](OP(=O)(O)O)[C@H](N)C(=O)O

In the first assay the target is T1, H3(1–15)T3ph peptide (UniProt P68431 part only).
T1 peptide (looked up): AR[pT]KQTARKSTGGKA
As to the kind of experiment: ITC. (In general: In ITC the heat of successive injections is recorded.)
For orientation: stoichiometry N means a count of units in the complex or per binding partner. As to B1, the dH is -6.21 ± 0.8 kcal/mol and the “stoichiometry N” value turned out to be 0.83 ± 0.09.
B2: the dH was -4.89 ± 0.35 kcal/mol and the “stoichiometry N” value is 0.83 ± 0.05.
Regarding B3, the dH was -6.26 ± 0.26 kcal/mol and the “stoichiometry N” value was found to be 0.97 ± 0.03.
Consider B4, for which the dH is -5.16 ± 0.13 kcal/mol and the “stoichiometry N” value was 0.84 ± 0.02.
B5: the dH was -6.4 ± 0.6 kcal/mol and the “stoichiometry N” value stood at 0.91 ± 0.06.

The target of the next assay is T2, unmodified H3(1–10) peptide (UniProt P68431 2-11).
T2 peptide (looked up): ARTKQTARKS
Kind of assay: ITC.
Regarding B4, the dH is -7.71 ± 0.64 kcal/mol and the “stoichiometry N” value stood at 0.92 ± 0.06.
The like results for B6 were, in that order, -3.52 ± 0.06 kcal/mol and 0.85 ± 0.01.
